PubChem BioAssay AID651820 (National Center for Advancing Translational Sciences (NCATS), 2012)
Among all 340,000 compounds or so, about 12,000 (3.5%) were called active. Inconclusive means that the source gave no clear call. Such entries were picked first, then a sample of the others. Calls follow the shape of the dose curve; as a rule, active = well fitted inhibition curve with a large enough effect; inconclusive = small, poorly fitted or top-dose-only effect, or another doubt; inactive = no such curve, though single readings can be large or run the other way. No potency is given beside an inconclusive call; the fits are too rough.

Assay: qHTS Assay for Inhibitors of Hepatitis C Virus (HCV)
Conditions: Huh7.5.1 HCVcc-Cre (HCVcc is cell-culture hepatitis C virus) infection, luciferase reporter, 44 h; activity change, negative = inhibition: at 41.8 µM (top of the series) unless noted
In short: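 A cell-based infection assay in which seeded cells (1,000 per well) receive test compound after 4 h, are inoculated with HCVcc-Cre at approximately 0.5 moi, and are incubated 44 h before luminescence detection.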
% is scaled to controls: 0 for no effect and ±100 for the full control effect; potency is read from the fitted curve at half-maximal effect; tags tell the direction and shape of the fitted curve.

| Structure (SMILES) | Potency | activity change, negative = inhibition |
| --- | --- | --- |
| COc1ccc(NC(=O)CSC2=C(C#N)C(c3ccco3)C3=C(CCCC3=O)N2)c(OC)c1 (configuration not stated) | inconclusive [inhibitor, partial curve, poor fit] | – |
| COc1ccccc1N1CCN(C(=O)c2cn(Cc3ccccc3)nc2-c2cccnc2)CC1 | inconclusive [inhibitor, partial curve] | – |
| CN(C)c1nc(N)c2ncc(=S)[nH]c2n1 | – | inactive: 3.74% |
| N#Cc1ccc(CSc2nnc(-c3c[nH]c4ccccc34)n2-c2ccccc2)cc1 | inconclusive [inhibitor, single point] | – |
| CCOC(=O)c1sc2nc(C)nc(NCc3ccc(Cl)cc3)c2c1C | inconclusive [inhibitor, partial curve] | – |
| CNC(=O)c1sc(N2N=C3/C(=C/c4ccccc4)CCCC3C2c2ccccc2)nc1C (configuration not stated) | active: 10 µM | – |
| C#CCOCCOCCOCCNc1nc(N2CCN(C(=O)[C@H]([C@@H](C)O)n3cc(CCCCN)nn3)CC2)nc(N2CCN(C(=O)[C@H](CCCCN)n3cc(CC(C)O)nn3)CC2)n1 (some centres not stated) | – | inactive: 4.25% |
| Cc1cccc(C(=O)OCC(=O)NCCNC(=O)COC(=O)c2cccc(C)c2C)c1C | inconclusive [inhibitor, single point] | – |
| CN1CCN(C(=O)C23CC4CC(C2)CC(c2ccccc2)(C4)C3)CC1 | active: 10 µM | – |
| COc1ccc(CN(CC(O)COCc2ccccc2)S(=O)(=O)c2ccccc2Br)cc1OC (configuration not stated) | active: 11.2 µM | – |
| COc1ccc(Cl)cc1N1CC(C(=O)Nc2nccs2)CC1=O (configuration not stated) | inconclusive [inhibitor, full curve] | – |
| O=C(c1cccc(C(F)(F)F)c1)C1CCCN(C(=O)CCCn2cncn2)C1 (configuration not stated) | – | inactive: 2.75% |
| COc1ccc(NC(=S)Nc2cccc(S(=O)(=O)N3CCCCC3)c2)cc1 | – | inactive: 7.91% |
| Cc1oc(-c2cc(F)ccc2F)nc1CN1CCC(C(=O)N2CCOCC2)CC1 | – | inactive: -3.54% |
| CC(=O)/C(=N\Nc1ccc(Cl)cc1Cl)Sc1cccc2cccnc12 | inconclusive [inhibitor, single point] | – |
| Cc1ccc(-n2c(C)cc(/C([O-])=C(/C(=S)Nc3ccc(F)c(Cl)c3)[n+]3ccccc3)c2C)cc1 | inconclusive [inhibitor, single point] | – |
| Nc1nc(SCC(=O)Nc2ccc([N+](=O)[O-])cc2Br)n[nH]1 | – | inactive: -8.63% |
| CC(NC(=O)CN1CCc2ccccc21)c1ccccc1 (configuration not stated) | inconclusive [inhibitor, partial curve] | – |
| Cc1ccccc1OCC(O)CN (configuration not stated) | – | inactive: 18.3% |
| O=C(Nc1ccccc1)c1ccsc1 | – | inactive: 7.74% |
| Cc1csc(NC(=O)Cc2coc3cc(C)c(C(C)C)cc23)n1 | active: 10 µM | – |
| Cn1cc(C(=O)N2CCCCCC2)c(=O)c2cc(S(=O)(=O)N3CCCCC3)ccc21 | inconclusive [inhibitor, single point] | – |
| COc1ccccc1N1CCN(C(=O)c2oc3ccc(Br)cc3c2C)CC1 | inconclusive [inhibitor, partial curve] | – |
| O=c1ccc(Oc2nc(N3CCCCC3)nc(N3CCCCC3)n2)n[nH]1 | inconclusive [inhibitor, single point] | – |

| Structure (SMILES) | Potency | activity change, negative = inhibition |
| --- | --- | --- |
| Cc1cc(NC(=O)CSc2nc3ccccc3c(=O)n2Cc2ccc(F)cc2)no1 | inconclusive [inhibitor, partial curve] | – |
| CCn1c(C2CC(=O)N(c3cc(C)cc(C)c3)C2)nc2ccccc21 (configuration not stated) | inconclusive [inhibitor, full curve, poor fit] | – |
| CCCCOc1ccc(C(=O)OCC(=O)N2CCCCCC2)cc1 | inconclusive [inhibitor, single point] | – |
| COCc1cc(C)nc2sc(C(=O)Nc3ccccc3F)c(N)c12 | active: 10 µM | – |
| O=[N+]([O-])c1ccc2ncnc(N3CCN(Cc4ccc5c(c4)OCO5)CC3)c2c1 | inconclusive [inhibitor, partial curve] | – |
| CCCN(Cc1nnc(-c2ccccc2Cl)o1)C(=O)c1oc2ccccc2c1C | inconclusive [inhibitor, single point] | – |
| Oc1ccc(/C=N/Nc2nccnc2Cl)c(O)c1 | inconclusive [inhibitor, full curve] | – |
| CCOc1ccc(CCNc2nc3c(c(=O)n(C)c(=O)n3C)n2CC)cc1OCC | active: 5.62 µM | – |
| COCC(=O)N1CCCC(C(=O)c2ccc(-c3ccccc3)cc2)C1 (configuration not stated) | – | inactive: -10% |
| COc1ccc(C(=O)Nc2cc(C(F)(F)F)ccc2-n2cncn2)cc1 | inconclusive [inhibitor, partial curve] | – |
| CCOC(=O)c1sc(NC(=O)CSc2ncccn2)nc1C | active: 15.8 µM | – |
| Cn1c(=O)c2c(ncn2Cc2cccc(Cl)c2)n(C)c1=O | active: 11.2 µM | – |
| Cc1ccc(NC(=O)c2ccc([N+](=O)[O-])s2)cc1S(=O)(=O)N1CCOCC1 | inconclusive [inhibitor, partial curve, poor fit] | – |
| CC(=O)Oc1c(Br)cc(N(C(C)=O)S(=O)(=O)c2ccccc2)c2ccccc12 | inconclusive [inhibitor, single point] | – |
| CCCCN1C(=O)C(=O)N(CC(=O)c2ccc3c(c2)CCCC3)C1=O | – | inactive: -8.36% |
| CC(C)N(Cc1cc2ccccc2[nH]c1=O)C(=O)c1ccco1 | – | inactive: 4.07% |
| CCc1sc(C(=O)Nc2ccc3c(c2)OCO3)cc1C | inconclusive [inhibitor, full curve] | – |
| COc1ccc(C(=O)N/N=C(\c2ccccc2)c2ccccn2)cc1 | active: 2.82 µM | – |
| CCOC(=O)C(=O)Nc1cc(C(=O)OC)cc(C(=O)OC)c1 | – | inactive: -0.402% |
| CCN1CCN(c2cc(C)c3cc(NC(=S)NCCN(C)C)ccc3n2)CC1 | inconclusive [inhibitor, partial curve] | – |
| CCN1CCN(c2nc3c(C)cccn3c(=O)c2/C=C(\C#N)S(=O)(=O)c2ccc(Cl)cc2)CC1 | – | inactive: 19% |
| CC(C)(C)Nc1nc(SCC(=O)Nc2ccccc2)nc(N2CCOCC2)n1 | inconclusive [inhibitor, full curve] | – |
| Cc1ccc(C(=O)NCC(=O)OCC(=O)/C=C2\N(C)c3ccccc3C2(C)C)cc1C | – | inactive: 1.24% |
| O=C(COC(=O)c1ccco1)c1ccc(F)cc1 | – | inactive: 10.5% |

| Structure (SMILES) | Potency | activity change, negative = inhibition |
| --- | --- | --- |
| O=C(c1ncn[nH]1)N1CCN(c2nc(-c3ccccc3)cs2)CC1 | – | inactive: -21.6% |
| COc1ccc(CCNc2nc(C)cc(C)c2C#N)cc1OC | inconclusive [inhibitor, single point] | – |
| Cc1c(CN(C)C)c2c(n1Cc1ccccc1)C(=O)c1ccccc1-2 | inconclusive [inhibitor, single point] | – |
| c1cn(CCCNC2CCCCCCC2)cn1 | inconclusive [inhibitor, single point] | – |
| CCCN1C(=O)S/C(=C/c2ccc(N3CCOCC3)o2)C1=O | inconclusive [inhibitor, full curve, poor fit] | – |
| CC(OC(=O)[C@@H](NC(=O)c1ccco1)C(C)C)C(=O)Nc1ncc(Cl)cc1Cl (some centres not stated) | – | inactive: -5.92% |
| COC(=O)c1ccccc1NC1CC(=O)N(c2c(C)cccc2C)C1=O (configuration not stated) | – | inactive: 1% |
| Cc1cccc(N2CC(O)(c3cccs3)[N+]3=C2CCCC3)c1 (configuration not stated) | – | inactive: -2.68% |
| O=C(Cc1ccccc1)Nc1ccc(NC(=O)c2cccs2)c(Cl)c1 | inconclusive [inhibitor, partial curve] | – |
| CC(C)(C)NC(=O)c1cccc(NC(=O)CSc2ccc(Cl)cc2)c1 | inconclusive [inhibitor, partial curve, poor fit] | – |
| Cc1cccc(N2CCN(C(=O)c3cc4ccccc4oc3=O)CC2)c1C | – | inactive: -7.14% |
| CCOc1cc(-c2nc(C)c(C(C)=O)n2O)ccc1OCC(=O)Nc1ccc(F)cc1 | inconclusive [inhibitor, partial curve, poor fit] | – |
| COc1ccccc1Nc1ncnc2c1c(C)c(C)n2CCCN(C)C | active: 3.98 µM | – |
| CC(C)Cc1nc(N2CCN(C(=O)c3ccccc3)CC2)c(C#N)c2c1CCC2 | active: 11.2 µM | – |
| CCN(CC)c1ccc(/C=C(\C#N)C(=O)NCc2ccccc2)cc1 | active: 25.1 µM | – |
| COC(=O)c1ccccc1NC(=O)N1c2ccccc2Sc2ccccc21 | inconclusive [inhibitor, partial curve] | – |
| O=C(NCc1ccncc1)C1CCCCC1 | inconclusive [inhibitor, single point] | – |
| COc1ccccc1NC(=O)COC(=O)/C=C/c1ccc(OC)c(OC)c1 | inconclusive [inhibitor, partial curve] | – |
| O=C(NCc1ccco1)c1cc(-c2ccccc2)nn1CC1CC(c2cccc([N+](=O)[O-])c2)=NO1 (configuration not stated) | inconclusive [inhibitor, full curve] | – |
| CN(c1ccccc1)S(=O)(=O)c1cccc(NC(=O)Cn2cnc3c2c(=O)n(C)c(=O)n3C)c1 | inconclusive [inhibitor, single point] | – |
| Cc1ccc(OCC(=O)N2C(C)CCCC2C)c([N+](=O)[O-])n1 (configuration not stated) | – | inactive: 8.5% |
| CCN(CC)CCNC(=O)c1ccc2c(=O)n(C3CCCC3)c(=S)[nH]c2c1 | inconclusive [inhibitor, full curve] | – |
| CCOc1ccccc1C(=O)Nc1ccc2nc3n(c(=O)c2c1)CCCCC3 | inconclusive [inhibitor, partial curve] | – |
| Cc1ccc(NC(=O)C2(S(=O)(=O)c3ccc(Cl)cc3)CC2)c(Br)c1 | inconclusive [inhibitor, single point] | – |
